Laboratory results reported in PubChem BioAssay AID1768 (National Center for Advancing Translational Sciences (NCATS), 2009).
The whole screen tested about 270,000 compounds, of which about 620 (0.23%) were called active. Inconclusive means that the source gave no clear call. Such entries were picked first, then a sample of the others. Calls follow the shape of the dose curve; as a rule, active = well fitted inhibition curve with a large enough effect in the polarisation, with a control signal flat (not every such curve was filed as active); inconclusive = small, poorly fitted or top-dose-only effect, or effect the other way, or a change in a side signal; inactive = no such curve, though single readings can be large or run the other way; the % refers to the polarisation. Potencies beside an inconclusive call are fits to weak or partial responses and may not hold up. A note “side channel” means that the fit belongs to a control or component signal, not to the main read-out.

target: Menin (Homo sapiens) (UniProt O00255); assay: qHTS Assay for Inhibitors Targeting the Menin-MLL Interaction in MLL Related Leukemias: Competition With Texas Red Labeled MLL-derived Mutant Peptide; conditions: fluorescence polarization; FP activity change, negative = inhibition: at 61.6 µM (top of the series); as to FP activity change, negative = inhibition: % of control where 0% means no effect
Potency is read from the fitted curve at half-maximal effect; tags tell the direction and shape of the fitted curve or compound fluorescence and quenching.

UniProt O00255, sequence (O00255 whole entry, looked up): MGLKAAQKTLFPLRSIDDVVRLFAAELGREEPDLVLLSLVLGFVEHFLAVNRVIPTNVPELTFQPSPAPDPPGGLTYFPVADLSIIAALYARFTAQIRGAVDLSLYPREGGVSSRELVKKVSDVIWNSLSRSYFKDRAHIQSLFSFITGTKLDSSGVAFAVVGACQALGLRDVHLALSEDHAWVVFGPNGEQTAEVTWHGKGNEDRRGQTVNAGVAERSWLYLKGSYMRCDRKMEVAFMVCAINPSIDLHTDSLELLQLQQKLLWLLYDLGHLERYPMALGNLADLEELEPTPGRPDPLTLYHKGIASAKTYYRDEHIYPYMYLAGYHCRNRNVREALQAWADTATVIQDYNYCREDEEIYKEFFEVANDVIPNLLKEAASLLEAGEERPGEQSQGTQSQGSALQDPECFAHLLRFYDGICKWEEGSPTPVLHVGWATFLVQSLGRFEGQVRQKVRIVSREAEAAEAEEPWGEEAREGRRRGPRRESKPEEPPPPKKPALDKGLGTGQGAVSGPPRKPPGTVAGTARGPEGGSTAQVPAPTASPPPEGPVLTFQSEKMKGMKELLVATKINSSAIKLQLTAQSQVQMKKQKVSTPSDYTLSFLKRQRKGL

| Structure (SMILES) | Potency | FP activity change, negative = inhibition |
| --- | --- | --- |
| COc1ccc(C(O)(CCC(C)C)C(CN2CCOCC2)c2ccc(Cl)cc2)cc1 (stereo not given) | inconclusive: 6.31 µM [fluorescent, side channel, full curve] | – |
| OC(CNCCc1ccc(C(F)(F)F)cc1)COC(c1ccccc1)c1ccccc1 (stereo not given) | inconclusive: 12.6 µM [inhibitor, partial curve] | – |
| COc1ccc(CC(=S)N2CCOCC2)cc1OC | inconclusive: 2.82 µM [inhibitor, full curve] | – |
| O=C(NNC(=S)NC(=O)c1cn(-c2ccccc2)nc1-c1ccccc1)c1ccncc1 | inconclusive: 28.2 µM [quencher, single point] | – |
| CO[C@H]1/C=C/O[C@@]2(C)Oc3c(C)c(O)c4c(O)c(c(/C=N\N5CCN(C6CCCC6)CC5)c(O)c4c3C2=O)NC(=O)/C(C)=C\C=C\[C@H](C)[C@H](O)[C@@H](C)[C@@H](O)[C@@H](C)[C@H](OC(C)=O)[C@@H]1C | inconclusive: 12.6 µM [quencher, side channel, partial curve] | – |
| C1=C(CN2CCOCC2)COc2c1cccc2OC[C@@H]1CNCCO1 | inactive | – |
| O=C(COc1ncnc2ccccc12)c1ccc(Cl)cc1 | inconclusive: 5.01 µM [quencher, side channel, full curve, poor fit] | – |
| Cc1ccc2[nH]c3nc(N/N=C/c4cccc(O)c4)nnc3c2c1 | inconclusive: 17.8 µM [quencher, side channel, single point] | – |
| N=C1/C(=C/c2cccn2-c2ccc([N+](=O)[O-])cc2)C(=O)N=C2SC=CN12 | inconclusive: 39.8 µM [quencher, side channel, partial curve] | – |
| Cc1ccc(NC(=O)c2cnccn2)cc1S(=O)(=O)N(C)C | inactive | – |
| Cc1nc2oc3ccccc3c(=O)c2cc1C(=O)O | inconclusive: 10 µM [quencher, side channel, partial curve] | – |
| CCOC(=O)c1c(C)[nH]c(N=Nc2ccccc2)c1C | inconclusive: 28.2 µM [quencher, side channel, single point] | – |
| COc1ccccc1C1c2ccc3ccccc3c2Oc2ncn(CCN(C)C)c(=N)c21 (stereo not given) | inconclusive: 10 µM [fluorescent, side channel, partial curve] | – |
| CN1/C(=C\C=C2/C(=O)Oc3ccccc3C2=O)C(C)(C)c2ccccc21 | inconclusive: 31.6 µM [fluorescent, side channel, single point] | – |
| COc1ccc(-c2nc3c(c4c2C[C@H](c2ccccc2)OC4)CN(C(=O)Cc2cccs2)CC3)c(C)c1 | – | inactive: -21.7% [at 11.7 µM] |
| Cc1nc(N)sc1-c1csc(Nc2ccc(Cl)cn2)n1 | inconclusive: 22.4 µM [quencher, side channel, single point] | – |
| COc1ccc(-c2csc(NCc3ccco3)n2)cc1C | inconclusive: 39.8 µM [quencher, side channel, single point] | – |
| CC(N)C(=O)NCC(=O)NC1CSSCC(C(=O)O)NC(=O)C(CO)NC(=O)C(C(C)O)NC(=O)C(Cc2ccccc2)NC(=O)C(C(C)O)NC(=O)C(CCCCN)NC(=O)C(Cc2c[nH]c3ccccc23)NC(=O)C(Cc2ccccc2)NC(=O)C(Cc2ccccc2)NC(=O)C(CC(N)=O)NC(=O)C(CCCCN)NC1=O (stereo not given) | inconclusive: 3.98 µM [fluorescent, side channel, single point] | – |

| Structure (SMILES) | Potency | FP activity change, negative = inhibition |
| --- | --- | --- |
| O=C(Cc1ccccc1[N+](=O)[O-])NCc1ccco1 | inconclusive: 10 µM [quencher, side channel, partial curve] | – |
| CCc1cc2c(=O)c(Oc3ccccc3)c(C)oc2cc1O | inactive | – |
| Cc1ccc(Oc2cc(NC(=O)CCCn3nc([N+](=O)[O-])cc3C)cc([N+](=O)[O-])c2)cc1 | inconclusive: 28.2 µM [quencher, side channel, single point] | – |
| CC(C)c1ccc(OCCCCN2CCCCC2)cc1 | inconclusive: 15.8 µM [fluorescent, side channel, partial curve] | – |
| Cc1nc2ccc(-c3nc4ccccc4[nH]3)cc2[nH]1 | inconclusive: 8.91 µM [inhibitor, single point] | – |
| Oc1ccc(/C=N/Nc2ccc(Cl)nn2)c(O)c1O | inconclusive: 14.1 µM [quencher, side channel, partial curve] | – |
| COc1cc(/C=N/NC(=O)C2COc3ccccc3O2)cc(OC)c1OC (stereo not given) | inactive | – |
| CC1(C)CC(=O)C2=C(C1)N=C1c3ccccc3C(=O)C1C2c1ccc(Cl)cc1 (stereo not given) | inconclusive: 11.2 µM [quencher, side channel, partial curve] | – |
| Cc1ccc(Nc2nnc(SCC(=O)c3ccc(O)cc3O)s2)cc1 | inconclusive: 28.2 µM [quencher, side channel, partial curve] | – |
| Cc1ccc(N=Nc2ccc(O)c3ncccc23)cc1 | inconclusive: 28.2 µM [quencher, side channel, partial curve] | – |
| COc1cc(/C=C(\C#N)c2[nH]nc(N)c2C#N)cc(OC)c1O | inconclusive: 22.4 µM [quencher, side channel, single point] | – |
| COc1ccc2c(c1)cc1n2CCN2CCCN=C12 | inconclusive: 39.8 µM [inhibitor, single point] | – |
| Clc1ccc(-c2csc(=Nc3cccnc3)n2CCCn2ccnc2)cc1Cl | inconclusive: 8.91 µM [fluorescent, side channel, partial curve] | – |
| COc1ccnc(N2CCN(c3cccc(C(F)(F)F)c3)CC2)c1C#N | inconclusive: 17.8 µM [inhibitor, single point] | – |
| CC1CCCN(c2c3c(nc4ccccc24)CCCC3)C1 (stereo not given) | inconclusive: 20 µM [inhibitor, partial curve] | – |
| c1ccc(-c2cn(-c3ccccc3)c3ncnc(N4CCCCC4)c23)cc1 | inconclusive: 28.2 µM [inhibitor, partial curve] | – |
| COC(=O)[C@@H]1Cc2c([nH]c3ccccc23)C2CCC(=O)N21 (stereo not given in full) | inconclusive: 28.2 µM [inhibitor, single point] | – |
